# The campaign covered roughly 310,000 compounds. About 14,000 (4.5%) showed an effect of 50% or more. The effect is printed as a negative number. This is one part of the list.
# Target: human ether-à-go-go-related gene (hERG) potassium channel (human, UniProt Q12809)
# Test: primary screen, population patch clamp on CHO cells stably expressing hERG
# 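Further: peak tail current of the secondary pulse compared with the same well before compound.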
# Sequence of human ether-à-go-go-related gene (hERG) potassium channel (Q12809 whole entry, looked up): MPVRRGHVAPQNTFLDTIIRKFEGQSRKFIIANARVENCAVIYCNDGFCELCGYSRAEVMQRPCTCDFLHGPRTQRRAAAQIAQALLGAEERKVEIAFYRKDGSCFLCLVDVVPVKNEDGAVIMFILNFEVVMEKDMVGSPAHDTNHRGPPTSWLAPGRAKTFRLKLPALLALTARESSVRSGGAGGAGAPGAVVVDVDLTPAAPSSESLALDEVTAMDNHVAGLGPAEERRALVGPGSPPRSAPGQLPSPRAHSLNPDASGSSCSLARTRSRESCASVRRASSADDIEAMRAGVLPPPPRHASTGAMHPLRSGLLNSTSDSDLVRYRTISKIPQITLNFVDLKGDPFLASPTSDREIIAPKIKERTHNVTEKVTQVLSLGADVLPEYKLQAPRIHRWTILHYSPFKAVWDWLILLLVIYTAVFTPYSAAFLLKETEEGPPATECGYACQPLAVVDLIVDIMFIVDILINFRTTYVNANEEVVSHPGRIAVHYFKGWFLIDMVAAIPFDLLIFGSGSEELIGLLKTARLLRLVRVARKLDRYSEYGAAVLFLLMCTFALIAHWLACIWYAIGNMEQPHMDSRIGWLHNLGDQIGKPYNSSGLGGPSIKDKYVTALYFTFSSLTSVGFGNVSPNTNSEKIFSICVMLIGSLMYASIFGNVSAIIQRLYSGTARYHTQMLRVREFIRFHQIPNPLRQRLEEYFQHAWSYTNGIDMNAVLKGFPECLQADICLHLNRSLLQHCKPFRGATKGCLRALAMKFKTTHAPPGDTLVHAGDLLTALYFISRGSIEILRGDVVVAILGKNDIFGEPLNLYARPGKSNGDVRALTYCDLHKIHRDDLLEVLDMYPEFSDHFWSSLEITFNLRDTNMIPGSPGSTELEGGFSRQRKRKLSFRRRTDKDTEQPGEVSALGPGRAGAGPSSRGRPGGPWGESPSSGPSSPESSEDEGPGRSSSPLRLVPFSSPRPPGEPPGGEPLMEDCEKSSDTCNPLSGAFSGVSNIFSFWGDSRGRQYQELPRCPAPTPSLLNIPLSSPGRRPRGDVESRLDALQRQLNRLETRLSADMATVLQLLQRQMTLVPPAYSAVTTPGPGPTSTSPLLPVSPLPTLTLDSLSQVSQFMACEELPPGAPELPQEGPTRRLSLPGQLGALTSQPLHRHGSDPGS
row,Structure (SMILES),"hERG current change (%, negative = inhibition) at 10uM"
1,O=C(CCCN1C(=O)c2ccccc2C1=O)Nc1ccccc1,-10.5%
2,C#Cc1ccc([C@H]2C=C(C(=O)O)O[C@@H](OCc3ccc(CO)cc3)C2)cc1,9.26%
3,CCOC(=O)C1=C(C)OC(N)=C(C#N)C1c1ccc(OC)c(C)c1OC (stereo not drawn),-5.65%
4,CCC(=O)N1N=C(c2ccc(C)cc2)CC1c1ccco1 (stereo not drawn),-8.61%
5,CCC(C)NC(=O)c1ccc(C(=O)c2ccccc2)cc1 (stereo not drawn),12.7%
6,O=C(NCCc1ccccc1)C(=Cc1ccc(C(=O)O)cc1)C(=O)NCCc1ccccc1,-1.94%
7,Cc1cccc2cc(CN(CCN3CCCC3)C(=O)NC3CCCCC3)c(=O)[nH]c12,-57%
8,COc1cccc2[nH]c3c(N4CCN(Cc5ccc6c(c5)OCO6)CC4)ncnc3c12,-17.3%
9,CCOc1ccc(NC(=O)Nc2ccccc2C(N)=O)cc1,-2.51%
10,COc1ccc(C(=O)N2CCN(c3nc4cc(C)ccc4cc3C#N)CC2)c(OC)c1,-22.8%
11,O=C1C=C(NCc2ccccc2)CCC1,12.1%
12,CCCCNC(=O)c1onc(CSc2cccc(F)c2)c1C(=O)O,10.9%
13,O=C1CSC(c2cccc([N+](=O)[O-])c2)N1c1ccc(O)cc1 (stereo not drawn),0.0802%
14,COCc1[nH][nH]c(=O)c1C=Nc1ccc(Cl)cc1,3.16%
15,Cc1cc(Nc2ccccc2Cl)n2nnnc2n1,0.169%
16,COc1ccc(C2c3ccc(O)cc3Oc3ncn(Cc4ccco4)c(=N)c32)cc1OC (stereo not drawn),-74.4%
17,CCOC(=O)C1CCCN(C(=O)c2[nH]c3ccc(OC)cc3c2C)C1 (stereo not drawn),15.8%
18,c1ccc(COc2ccc3nocc3c2)cc1,-2.43%
19,COCCNc1nc2nonc2nc1N(C)Cc1cccc2cnccc12,-16.9%
20,O=C(Nc1nccs1)c1ccc[nH]c1=O,13%
21,COc1cccc(CN2CC=C(c3ccc(F)cc3)CC2)c1,-26.5%
22,Cc1ccsc1/C=N/NC(=O)CNC(=O)c1cccc([N+](=O)[O-])c1C,22.5%

row,Structure (SMILES),"hERG current change (%, negative = inhibition) at 10uM"
1,O=C(Nc1ccccc1)c1ccc(-c2ccc([N+](=O)[O-])cc2)o1,4.73%
2,Cc1ccc(SCC(=O)Nc2nncs2)cc1,11.7%
3,O=C(CN(C(=O)CCC(=O)Nc1nccs1)c1ccc(F)cc1)NCc1ccc2c(c1)OCO2,9.18%
4,CCC(=O)N(CC(=O)Nc1sc(C)c(C)c1C(N)=O)C1CCCCC1,4.91%
5,CSc1ccc(/C=C(/NC(=O)c2ccccc2)C(=O)NCCCn2ccnc2)cc1,-60.8%
6,Cn1c(O)c(C=NC2C(=O)C3(C)CCC2C3(C)C)c(=O)n(C)c1=O (stereo not drawn),-0.548%
7,Cc1cccc2c(C(=O)N3CCN(c4ccccc4)CC3)cc(-c3ccncc3)nc12,-15.9%
8,C=CCN(c1ccc(C(=O)NCCN2CCOCC2)cc1)S(C)(=O)=O,-17.9%
9,O=C(O)c1cc(O)ccc1-c1ccc(O)cc1,12.3%
10,CCOC(=O)N1CCC2(CC1)C(C#N)=C(N)Oc1c2c(C)nn1-c1cccc(Cl)c1,-1.45%
11,O=C(O)CCSc1nc2ccc(Br)cc2[nH]1,8.75%
12,O=C(CNC(=O)c1ccccc1Cl)c1ccccc1,21.6%
13,FC(F)(F)c1nc(-c2cccnc2)ncc1-c1nnnn1-c1ccccc1,8.46%
14,C=CCn1c(SCC(=O)Nc2cccc3ccccc23)nc(O)c(CC)c1=O,3.7%
15,CC(=O)NCc1ccc(C(=O)CSc2nnc(-c3ccncc3)n2Cc2ccccc2)o1,1.6%
16,Cc1ccc(Nc2nc(CSc3nnc(-c4cccnc4)n3-c3ccccc3C)cs2)cc1,-36.4%
17,CCN(Cc1ccccc1)C(=O)COC(=O)Cn1cnc2ccccc21,18%
18,O=C(Nc1ccc2ccccc2c1)c1cccnc1,-12%
19,CCn1ccnc1CN(C)Cc1cn[nH]c1-c1ccc(OC)c(F)c1,-13.9%
20,Cc1cccc(CN2CCN(CC(=O)N3CCC4(CC3)OCCO4)C2=O)c1,21.1%
21,CNS(=O)(=O)c1c(C)cc(C)c(N(C)S(=O)(=O)c2ccccc2)c1C,2.72%
22,O=C(COC(=O)CC(c1ccccc1)c1ccccc1)NCc1ccc(Cl)cc1,-7.81%

row,Structure (SMILES),"hERG current change (%, negative = inhibition) at 10uM"
1,CN(C)c1ccc(N=Nc2ccccc2C(=O)OCC(=O)NC2CCCC2)cc1,0.517%
2,O=C(NC(Cc1ccccc1)C(=O)N1CCC2(CC1)OCCO2)C1CCCCC1 (stereo not drawn),-2.45%
3,CC1CCCN(CCCNC(=O)c2nn(C)c3c2CSc2ccccc2-3)C1 (stereo not drawn),-72.5%
4,O=C(Nc1nc2ccc(S(=O)(=O)N3CCCC3)cc2s1)C1CCCO1 (stereo not drawn),-1.91%
5,CCOC(=O)c1ccc2ncc(C(=O)OCC)c(Nc3ccc(N4CCOCC4)cc3)c2c1,-13.4%
6,Cn1cnnc1SCc1ccc(C(=O)N/N=C/c2cccs2)cc1,4.87%
7,CN(Cc1ccccc1)S(=O)(=O)c1ccc(S(=O)(=O)N(Cc2ccc(F)cc2)C2CCCC2)cc1,-8.16%
8,CCC(=O)N1CCN(c2ccccc2NC(=O)c2ccc(OC)c(Cl)c2)CC1,-11.6%
9,COc1ccccc1-n1c(C)nc2cc(C(=O)NCC3CCCO3)ccc21 (stereo not drawn),-23.6%
10,O=C(NCC1CCCN(Cc2cccc(OCCO)c2)C1)c1ccc(F)cc1 (stereo not drawn),-16.3%
11,Cc1cc(C)c2[nH]c(=O)c(CN(CC3CCCO3)S(=O)(=O)c3ccc4c(c3)OCCO4)cc2c1 (stereo not drawn),3.84%
12,O=C(CSc1ncnc2c1oc1ccccc12)NCc1ccco1,-12.4%
13,Cc1nn(-c2ccc([N+](=O)[O-])cc2)c(N)c1-c1ccccc1,-19.1%
14,CC1Cc2cc(S(=O)(=O)N3CCN(c4ccccc4)CC3)ccc2N1C(=O)C1CC1 (stereo not drawn),20.4%
15,CCSc1nnc(NC(=O)c2nc3nc(C)cc(C)n3n2)s1,13.1%
16,Cc1ccc(C(=O)NCCCNC(=O)c2ccco2)cc1,7.23%
17,COc1ccc(C(O)P(=O)(OC2CCCCC2)c2ccc(N(C)C)cc2)cc1OC (stereo not drawn),-7.44%
18,Cc1cc(=O)oc2cc(OCC(=O)NCCc3c[nH]c4ccc(F)cc34)ccc12,21.4%
19,O=C(O)c1ccccc1NC(=O)c1ccccc1Nc1ccccc1,22%
20,CCN(CC)c1ccc2cc(-c3nc(-c4ccc(OC)cc4)cs3)c(=O)oc2c1,3.63%
21,CCOc1cc(C(=O)NN2CCOCC2)cc(OCC)c1OCC,35.2%
22,CC1(c2cccc(Br)c2)NC(=O)N(CC(=O)Nc2cccnc2Cl)C1=O (stereo not drawn),14.6%

row,Structure (SMILES),"hERG current change (%, negative = inhibition) at 10uM"
1,Oc1ccc(C[C@H]2CNCCN2CC2(c3ccccc3)CC2)cc1,-33.5%
2,O=C(NCc1ccncc1)C1CCCN(S(=O)(=O)c2ccc(Br)cc2)C1 (stereo not drawn),-77.5%
3,COCC1CCN(C(=O)c2cc(COc3ccc(OC)c4ccccc34)on2)C1 (stereo not drawn),-18.6%
4,CCOC(=O)CN1NC2(CCCCC2)NC1=S,26.6%
5,Cc1sc2ncn(CC(=O)N3CCN(c4ccccn4)CC3)c(=O)c2c1S(=O)(=O)N1CCC(C)CC1,-8.84%
6,Cc1ccc2nc3c(cc(C(=O)NC4CCCCC4)c(=N)n3C3CCCCC3)c(=O)n2c1,-74.7%
7,CSc1ncc(Cl)c(C(=O)Nc2ccc(C)c(C)c2)n1,13.4%
8,COc1ccc(N2C(=O)CSC2c2cccc(F)c2)cc1 (stereo not drawn),15.3%
9,CCN=C1S/C(=C\c2cn(CC(=O)NCCOC)c3ccccc23)C(=O)N1CC,-0.703%
10,COc1ccc(C2CC(C)(c3ccc(OC)cc3)Nc3ccccc3N2)cc1 (stereo not drawn),3.39%
11,CC(C)(C)C1CCC(C(=O)NCCc2ccc(S(N)(=O)=O)cc2)CC1 (stereo not drawn),15.4%
12,COc1ccc(NC(=O)CCNC(=O)C2CCN(S(=O)(=O)c3ccc(F)cc3)CC2)cc1OC,9.22%
13,O=C(c1c[nH]c2ccccc2c1=O)N1CCCCCC1,11.6%
14,COc1ccc(CCNCC(O)c2ccccc2)cc1.O=C(O)C(=O)O (stereo not drawn),-11.4%
15,C/C(N)=C(/C#N)C(=O)CSc1nc2scc(-c3ccc(F)cc3)c2c(=O)n1C,-0.806%
16,Cn1cc(C(=O)N/N=C/c2cccs2)c2ccccc21,-28.8%
17,CCc1ccc(N/C(SCc2cccc(F)c2)=C(/C#N)C(=O)NCc2ccco2)cc1,11.7%
18,Cc1ccccc1C(=O)NNC(=S)Nc1cccc(C(F)(F)F)c1,-3.18%
19,CC(C)COP(=O)(c1ccc(N(C)C)cc1)C(O)c1cccnc1 (stereo not drawn),3.26%
20,O=C(CCN1CCOCC1)c1ccc2c(c1)OCCO2,9.96%
21,CCSc1nnc(NC(=O)COc2ccc3ccccc3c2)s1,5.6%

# — paper PMC4336329 (PLoS ONE, 2015)
